The text below walks through data of US20230256114A1, “NOVEL MAYTANSINOIDS AS ADC PAYLOADS AND THEIR USE FOR THE TREATMENT OF CANCER” (priority 2020, published 2023).

In data set [1] the test system is MDA-MB-468, SK-BR-3, Colo205, and A549 cells. The data set is described as follows: In vitro cytotoxicity assay of ADCs and free payloads (FIG. 20). It is filed as cell-based. The protocol:
Anti-Trop-2 ADCs were conjugated with different DM1 derivatives with similar DARs, and were tested ahead to ahead with anti-Trop-2-SMCC-DM1 and anti-Trop-2-vc-MMAE against BxPC-3 pancreatic cancer cells representing high Trop-2 expression, MDA-MB-468 breast cancer cells, N87 gastric cancer cells, and SK-BR-3 […] cancer cells representing moderate Trop-2 expression, Colo205 colon cancer cells representing low Trop-2 expression, and A549 lung cancer cells and MDA-MB-231 breast cancer cells with undetectable level of Trop-2. In vitro cytotoxicity assay was performed. Briefly, all cell lines were cultured in a suitable culture medium at 37° C. in a humidified incubator atmosphere of 5% CO2. Cells were plated in 96-well flat bottom plates. Cell seeding number ranged from 500 cells//100 ul/well to 6,000 cells/100 μl/well. Cells were allowed to adhere overnight at 37° C. in a humidified atmosphere of 5% CO2. ADCs were prepared from stock solution and diluted into appropriated working concentration 24 hours after cell seeding. […] Cell Counting Kit-8 solution (Dojindo China Co., Ltd, lot #PL701) was added to the wells for 1-4 hours at 37° C. and the absorbance at 450 nm was measured using a Microplate Reader (SpectraMax M5, Molecular Devices) and SoftMax Pro5.4.1 software. Dose-response curves were generated and IC50 was calculated using GraphPad Prism 7 three-parameter curve fitting. […]

The subject of the next data set is A549 lung cancer cells. The data set is described as follows: In vitro cytotoxicity assay (Cell Counting Kit-8, 72 hours). The data set is classed as cell-based, human. The settings on record: A549, TROP2 expression −. The protocol:
(§1) Anti-Trop-2 ADCs were conjugated with different DM1 derivatives with similar DARs, and were tested ahead to ahead with anti-Trop-2-SMCC-DM1 and anti-Trop-2-vc-MMAE against BxPC-3 pancreatic cancer cells representing high Trop-2 expression, MDA-MB-468 breast cancer cells, N87 gastric cancer cells, and SK-BR-3 […] cancer cells representing moderate Trop-2 expression, Colo205 colon cancer cells representing low Trop-2 expression, and A549 lung cancer cells and MDA-MB-231 breast cancer cells with undetectable level of Trop-2. In vitro cytotoxicity assay was performed. Briefly, all cell lines were cultured in a suitable culture medium at 37° C. in a humidified incubator atmosphere of 5% CO2. Cells were plated in 96-well flat bottom plates. Cell seeding number ranged from 500 cells//100 ul/well to 6,000 cells/100 μl/well. Cells were allowed to adhere overnight at 37° C. in a humidified atmosphere of 5% CO2. ADCs were prepared from stock solution and diluted into appropriated working concentration 24 hours after cell seeding. A serial ten-fold dilution for seven points was performed with culture medium. The final concentrations were ranging from 10,000 nM to 0.001 nM. The cells were incubated with ADCs for 72 hours. Cell Counting Kit-8 solution (Dojindo China Co., Ltd, lot #PL701) was added to the wells for 1-4 hours at 37° C. and the absorbance at 450 nm was measured using a Microplate Reader (SpectraMax M5, Molecular Devices) and SoftMax Pro5.4.1 software. Dose-response curves were generated and IC50 was calculated using GraphPad Prism 7 three-parameter curve fitting.
On the technique in general: Tetrazolium dyes change colour on reduction, which living cells bring about.

The subject of data set [2] is MDA-MB-231 breast cancer cells. The data set is described as above. The settings on record: MDA-MB-231, TROP2 expression −, ADC DAR 4. It is filed as cell-based, human. How it is done: as §1
Data set [3] relates to Trop-2 high or medium cells. Put plainly: In vitro cytotoxicity assay, summary over cell lines with high/moderate Trop-2 expression. It is filed as cell-based. The settings on record: ADC-BI-P203 DAR7, ADC-vc-MMAE DAR4; BxPC-3, MDA-MB-468, NCI-N87. The protocol: Anti-Trop-2 ADCs were conjugated with different DM1 derivatives with similar DARs, and were tested ahead to ahead with anti-Trop-2-SMCC-DM1 and anti-Trop-2-vc-MMAE against BxPC-3 pancreatic cancer cells representing high Trop-2 expression, MDA-MB-468 breast cancer cells, N87 gastric cancer cells, and SK-BR-3 […] cancer cells representing moderate Trop-2 expression, Colo205 colon cancer cells representing low Trop-2 expression, and A549 lung cancer cells and MDA-MB-231 breast cancer cells with undetectable level of Trop-2. In vitro cytotoxicity assay was performed. Briefly, all cell lines were cultured in a suitable culture medium at 37° C. in a humidified incubator atmosphere of 5% CO2. Cells were plated in 96-well flat bottom plates. Cell seeding number ranged from 500 cells//100 ul/well to 6,000 cells/100 μl/well. Cells were allowed to adhere overnight at 37° C. in a humidified atmosphere of 5% CO2. ADCs were prepared from stock solution and diluted into appropriated working concentration 24 hours after cell seeding. […] Cell Counting Kit-8 solution (Dojindo China Co., Ltd, lot #PL701) was added to the wells for 1-4 hours at 37° C. and the absorbance at 450 nm was measured using a Microplate Reader (SpectraMax M5, Molecular Devices) and SoftMax Pro5.4.1 software. Dose-response curves were generated and IC50 was calculated using GraphPad Prism 7 three-parameter curve fitting.

B1: Anti-Trop-2-BI-P209: humanized anti-Trop-2 antibody conjugated to BI-P209 payload (conjugate)
heavy: SALMSRLTISKDTSKNQFSLKLSSVTAADTAVYYCARDENWDGAWFAYWGQGTLVTVSSASTKGPSVFPLAPSSKSTSGGTAALGCLVKDYFPEPVTVSWNSGALTSGVHTFPAVLQSSGLYSLSSVVTVPSSSLGTQAYICNVNHKPSNTKVDKKVG[human IgG1 Fc with K334R T359A (EU numbers) not shown]
light: DIVMTQSPDSLAVSLGERATINCKSSQSLLNSGTRKNYLAWYQQKPGQPPKLLISWASSRESGVPDRFSGSGSGTDFTLTISSLQAEDVAVYYCKQSYNLFTFGGGTKVEIKRTVAAPSVFIFPPSDEQLKSGTASVVCLLNNFYPREAKVQWKVDNALQSGNSQESVTEQDSKDSTYSLSSTLTLSKADYEKHKVYACEVTHQGLSSPVTKSFNRGEC
Take B1: the “in vitro cytotoxic activity of the ADC compared with ADC-BI-P203” value in data set [1] is “comparable activity as ADC-BI-P203”.

B2: Anti-Trop-2-BI-P205: humanized anti-Trop-2 antibody conjugated to BI-P205 payload (conjugate)
heavy: B1 heavy
light: B1 light
As usually defined, the IC50 is the midpoint of a concentration-inhibition curve. Read a low IC50 as higher potency. The molecule B2 showed an IC50 in the data set with A549 lung cancer cells (ADC DAR 3.6) of more than 100 nM.

B3: Anti-Trop-2-SMCC-DM1: comparator ADC: anti-Trop-2 antibody with SMCC-DM1 payload, lysine conjugation, DAR 4 (conjugate)
heavy: B1 heavy
light: B1 light
For the molecule B3, the IC50 with A549 lung cancer cells (ADC DAR 4) was more than 100 nM; with A549 lung cancer cells (ADC DAR 4, listed as ADC-SMCC-DM1), approximately 100 nM; in data set [2] it was more than 100 nM; in data set [2] (listed as ADC-SMCC-DM1), approximately 100 nM.

B4: Anti-Trop-2-Vc-MMAE: comparator ADC: anti-Trop-2 antibody with vc-MMAE payload, DAR 4 (conjugate)
heavy: B1 heavy
light: B1 light
In the case of B4, the IC50 in the data set on A549 lung cancer cells (ADC DAR 4) is more than 100 nM; with A549 lung cancer cells (ADC DAR 4, listed as ADC-vc-MMAE), approximately 100 nM; in data set [2], more than 100 nM; in data set [2] (listed as ADC-vc-MMAE), approximately 100 nM. For the same molecule, the “cell killing potency compared with ADC-SMCC-DM1 (DAR4)” value in data set [3] is recorded as “more potent than ADC-SMCC-DM1(DAR4)”.
